Out of some 150,000 compounds screened, about 6,500 (4.3%) were called active. The shares of active, inactive and inconclusive entries below differ from those in the screen. Calls come from the whole dose curve; as a rule, active = well fitted inhibition curve with a large enough effect (not every such curve was filed as active); inconclusive = small, poorly fitted or top-dose-only effect, or another doubt; inactive = no such curve, though single readings can be large or run the other way. Potencies of inconclusive entries are left out as doubtful fits.
target: 15-hydroxyprostaglandin dehydrogenase [NAD(+)] (Homo sapiens) (UniProt P15428); assay: qHTS Assay for Inhibitors of HPGD (15-Hydroxyprostaglandin Dehydrogenase); conditions: purified HPGD, NADH fluorescence kinetic, PGE2 substrate; activity change, negative = inhibition: stronger effect = lower value
Sequence of UniProt P15428 (P15428 whole entry, looked up): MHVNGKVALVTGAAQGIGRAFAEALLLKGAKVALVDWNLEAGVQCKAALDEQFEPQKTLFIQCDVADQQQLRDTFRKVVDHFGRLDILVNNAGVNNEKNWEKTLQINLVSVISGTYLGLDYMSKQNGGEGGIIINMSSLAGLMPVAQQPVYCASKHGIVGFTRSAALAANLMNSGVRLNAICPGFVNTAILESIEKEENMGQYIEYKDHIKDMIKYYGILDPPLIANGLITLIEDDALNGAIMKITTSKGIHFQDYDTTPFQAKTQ
How it was run: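 20 nM HPGD preincubated 15 min at room temperature with compound in 50 mM Tris-HCl pH 8, 0.01% Tween 20. Started with 1 mM NAD+ and 30 uM prostaglandin E2; NADH fluorescence (360/450 nm) read 5 times over 30-s intervals, last minus first.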
% is set by controls: 0 for no effect and ±100 for the full control effect; potency is the fitted concentration of half-maximal effect; tags give direction and shape of the fitted curve.

Row | Structure (SMILES) | activity change, negative = inhibition | Potency
1 | CCOc1ccc(OCc2ccc(C(=O)NCC3CCCO3)o2)cc1 (stereo not given) | inactive: -29.1% | 
2 | S=C(NCC1CCCO1)Nc1ccc(Cl)cc1Cl (stereo not given) |  | active: 28.2 µM
3 | CN(C)C(=O)c1ccc(-c2ccc3ncnc(NCc4cccnc4)c3c2)cc1 |  | inconclusive [inhibitor, partial curve]
4 | O=C(NCCCNCc1ccccc1)c1ccncc1 | inactive: 1.77% | 
5 | Cc1cc(=O)oc2cc(OCc3ccc(C(=O)OCC(=O)Nc4ccccc4OC(F)F)cc3)ccc12 |  | inconclusive [inhibitor, single point]
6 | O=C(O)c1ccc(/C=N/NC(=O)c2cc(-c3cccs3)nc3ccccc23)cc1 |  | inconclusive [inhibitor, partial curve]
7 | Cc1nn(CCOc2ccccc2)c(=O)n1-c1c(F)cccc1F | inactive: -8.77% | 
8 | CCCC[C@@H]1C[C@H]1C(NC(=O)c1ccccc1)c1ccc(C(F)(F)F)cc1 (stereo not given in full) | inactive: -13% | 
9 | Cn1cc(Cl)c(C(=O)N/N=C/c2ccc(OS(=O)(=O)c3ccccc3)cc2)n1 |  | inconclusive [inhibitor, single point]
10 | COc1ccc(NC(=O)c2cc3n(n2)C(C(F)(F)F)CC(c2ccco2)N3)cc1 (stereo not given) | inactive: -3.49% | 
11 | O=C(c1ccncc1)N1CCC2(CC1)CCN(C(c1ccccc1)c1ccccc1)CC2 | inactive: -2.18% | 
12 | CNc1ccccc1C(=O)OCC(C)=O |  | inconclusive [inhibitor, partial curve]
13 | C#CCOc1ccc(Br)cc1/C=N/O |  | active: 14.1 µM
14 | COC(=O)N[C@H](C[N+](=O)[O-])C(C)(C)C | inactive: -1.4% | 
15 | C=C(C)CSc1cc(C)c(C#N)c2nc3ccccc3n12 |  | inconclusive [inhibitor, partial curve]
16 | CCN(CC(=O)NC(c1ccccc1)c1ccccc1)Cc1nc2ccccc2c(=O)[nH]1 | inactive: -18% | 
17 | O=C(CSC1CC(=O)N(CCc2ccccc2)C1=O)Nc1cccc(Cl)c1 (stereo not given) |  | active: 7.94 µM
18 | O=C(O)CC1(CC(=O)Nc2ccc3ccccc3c2)CCCCC1 |  | active: 3.98 µM
19 | O=S(=O)(c1ccc(Br)cc1)c1nc(-c2ccccc2)oc1NCc1cccnc1 |  | inconclusive [inhibitor, partial curve]
20 | O=S(=O)(c1ccc(Br)cc1)N1CCN(c2cc(-c3ccccc3)nc3ncnn23)CC1 |  | inconclusive [inhibitor, partial curve]
21 | COC(=O)c1ccc(Oc2nc(C(N)=O)cc(-c3ccccc3)n2)cc1 |  | inconclusive [inhibitor, partial curve]
22 | Cn1c(=O)cnc2cnc(Nc3ccccc3)nc21 | inactive: -13.1% | 
23 | O=C(/C=C/c1ccc(Cl)c(Cl)c1)n1cccn1 | inactive: -3.08% | 
24 | COc1ccc(O)c(C(=O)CC(=O)c2ccccc2)c1 |  | inconclusive [inhibitor, partial curve]
25 | CC1(C)CC(=O)C2=C(C1)OC1=C(C(=O)CC(C)(C)C1)C2c1ccc(O)cc1O |  | active: 3.16 µM

Row | Structure (SMILES) | activity change, negative = inhibition | Potency
26 | CCCN1CC=C2C(C#N)=C(N)C(C#N)(C#N)C(c3cc(OC)ccc3OC)C2C1 (stereo not given) |  | inconclusive [inhibitor, partial curve]
27 | CC1=CC(C)=Nc2ccccc2N1 | inactive: -15.2% | 
28 | O=C(Nc1nnc(SCC(=O)N2CCCc3ccccc32)s1)c1ccc2ccccc2c1 |  | inconclusive [inhibitor, partial curve]
29 | Cn1cc2c(=O)n(/N=C/c3ccccc3)cnc2n1 | inactive: -1.73% | 
30 | Fc1cccc2sc(Nc3nnc(-c4ccco4)o3)nc12 |  | inconclusive [inhibitor, partial curve]
31 | COC(=O)c1ccc(NS(=O)(=O)c2cccc3cccnc23)cc1 | inactive: -6.77% | 
32 | CC(C(=O)O)c1cccc(C(=O)c2ccccc2)c1 (stereo not given) |  | inconclusive [inhibitor, partial curve]
33 | Nc1ncc(Br)cc1N=Cc1ccccc1 | inactive: -7.16% | 
34 | Cc1cc(Cl)ccc1OCCCC(=O)NCc1ccncc1 |  | inconclusive [inhibitor, partial curve]
35 | Cc1cccc(C)c1OCC(O)CN1CCC(CN2C(=O)c3cccc4cccc(c34)C2=O)CC1 (stereo not given) |  | inconclusive [inhibitor, partial curve]
36 | O=C(CCC1N=C2c3ccccc3N=C(SCc3ccccc3Cl)N2C1=O)NCc1ccco1 (stereo not given) |  | inconclusive [inhibitor, single point]
37 | COc1ccc2sc3ccccc3c(=O)c2c1OC |  | active: 6.31 µM
38 | CCOCc1nnc(NC(=O)COC)s1 |  | inconclusive [inhibitor, single point]
39 | CC1=CC2=NC(=O)CC(C)(C(=O)N(CC(=O)NC(C)(C)C)Cc3cccs3)N2C=C1 (stereo not given) |  | inconclusive [inhibitor, partial curve]
40 | O=S(=O)(Nc1cccc(-c2cn3ccsc3n2)c1)c1ccc(F)cc1 | inactive: -13.5% | 
41 | Cc1c(C(=O)Nc2cccc(C(F)(F)F)c2)oc2ccc(S(=O)(=O)N3CCOCC3)cc12 |  | inconclusive [inhibitor, partial curve]
42 | CC1CCCC(C)N1C(=O)c1cc(-c2cccs2)on1 (stereo not given) |  | active: 14.1 µM
43 | OC[C@@H]1[C@@H](c2ccc(F)cc2)C(c2ccc(F)cc2)=NN1c1ccccc1 |  | inconclusive [inhibitor, partial curve]
44 | Cc1cc(C(=O)NCCC2=CCCCC2)c(C)o1 |  | inconclusive [inhibitor, partial curve]
45 | COc1cc(C(O)CO)ccc1OS(=O)(=O)O (stereo not given) | inactive: -5.48% | 
46 | Cc1[nH]n2c(=O)c3c(nc2c1-c1ccc(Cl)cc1)CCC3 |  | inconclusive [inhibitor, partial curve]
47 | O=C1NC2(CCCc3ccccc32)C(=O)N1Cc1nnc(-c2ccccc2Br)o1 (stereo not given) | inactive: -27.6% | 
48 | COc1ccc(NC(=O)N2CCCC3(CCN(C(=O)c4ccco4)CC3)C2)cc1 | inactive: -7.83% | 
49 | Cc1csc2ncc(C(=O)Nc3ccccc3F)c(=O)n12 |  | inconclusive [inhibitor, partial curve, poor fit]
50 | CC(=O)N(CC(O)CN(C(C)=O)c1c(I)c(C(=O)NC[C@@H](O)CO)c(I)c(C(=O)NC[C@@H](O)CO)c1I)c1c(I)c(C(=O)NC[C@@H](O)CO)c(I)c(C(=O)NC[C@@H](O)CO)c1I | inactive: 2.39% | 

Row | Structure (SMILES) | activity change, negative = inhibition | Potency
51 | Cc1noc(C)c1CSc1nc2ccccc2nc1NS(=O)(=O)c1ccc(Cl)cc1 |  | inconclusive [inhibitor, partial curve]
52 | O=C(Nc1cccc(Cl)c1)Nc1nnc(CC2=CCCCC2)s1 | inactive: -6.44% | 
53 | Cc1c(C(=O)N2CCOCC2)sc(NC(=O)c2ccc3c(c2)OCO3)c1C#N |  | inconclusive [inhibitor, single point]
54 | O=C(Nc1nc(=S)ss1)c1c(F)cccc1F |  | inconclusive [inhibitor, single point]
55 | CN(C)c1ccc(/C=N/NC(=O)CCC(=O)NCc2ccccc2)cc1 |  | inconclusive [inhibitor, partial curve]
56 | O=C(Nc1ccc(OCc2ccccc2)cc1)c1cccnc1 | inactive: -19.2% | 
57 | COc1cccc(-n2nnnc2SCC(=O)NCc2ccco2)c1 |  | inconclusive [inhibitor, partial curve]
58 | O=C(CNC(=O)OCc1ccccc1)Oc1cc2oc(=O)cc(-c3ccccc3)c2cc1Cl |  | inconclusive [inhibitor, partial curve]
59 | COc1cc(/C=C/C(=O)O)cc(S(=O)(=O)NCCO)c1OC |  | inconclusive [inhibitor, partial curve]
60 | CCCCOC(=O)Nc1cccc(C(C)=O)c1 |  | active: 28.2 µM
61 | COc1ccc2c3c(c(=O)oc2c1OCC(=O)C(C)(C)C)CCCC3 |  | inconclusive [inhibitor, partial curve]
62 | CCOC(=O)c1c(-c2ccc(OCC)cc2)csc1NC(=O)CCN1C(=O)c2ccccc2C1=O | inactive: -16.2% | 
63 | COc1ccc(C(=O)Nc2scc(-c3ccc(Cl)cc3Cl)c2C(N)=O)cc1 |  | inconclusive [inhibitor, partial curve]
64 | COc1ccc(-c2cc(=O)[nH][nH]2)cc1 | inactive: -9.11% | 
65 | O=C1c2ccccc2-c2ccc(C(=O)N3CCOCC3)cc21 |  | active: 11.2 µM
66 | CCOC(=O)c1[nH]c2ccc(OC)cc2c1NC(=O)CN1CCC2(CC1)OCCO2 |  | inconclusive [inhibitor, partial curve]
67 | COc1cccc(/C=N/Nc2ncnc3scc(-c4ccccc4)c23)c1O |  | active: 20 µM
68 | COc1ccccc1CNC(=O)C1COc2ccccc2O1 (stereo not given) |  | active: 15.8 µM
69 | N/C(=N\NC(=O)c1cccs1)c1cc2ccccc2oc1=O | inactive: 1.39% | 
70 | O=C(O)c1cc(N=Cc2ccccc2O)cc(C(=O)O)c1 | inactive: -23.9% | 
71 | CCCCNc1ncnc2c1cnn2-c1ccc(C)cc1C |  | inconclusive [inhibitor, full curve]
72 | COc1ccc(/C=N/NS(C)(=O)=O)c(OC)c1 |  | inconclusive [inhibitor, partial curve]
73 | CCN1CN(Cc2ccccc2)CNC1=S | inactive: -9.5% | 
74 | Cc1nc2ccc(S(=O)(=O)NC(C(=O)N3CCCCCC3)C(C)C)cc2s1 (stereo not given) | inactive: -2.12% | 
75 | CCOc1ccc(NC(=O)COc2ccc(C(=O)NC3CCCc4ccccc43)cc2OC)cc1 (stereo not given) | inactive: -12.8% | 
